Patent US20170079281A1, “CITRUS-BASED ANTIMICROBIAL COMPOSITION” (priority 2015, published 2017)

Test system: E. coli O157:H7
Assay: E. coli O157:H7 suspended in dirty water or on spinach
Settings: 20 ppm NaOCl

OCl [NaOCl, Sodium hypochlorite]
log reduction against E. coli O157:H7 (pH 3.1, study #1 dirty water, <30 seconds, 90 seconds & 5 minutes): > 5 log
log reduction against E. coli O157:H7 (pH 3.1, study #2 washed spinach, <30 seconds, 90 seconds & 5 minutes): 1 log
log reduction against E. coli O157:H7 (pH 3.1, study #3 unwashed spinach, <30 seconds, 90 seconds & 5 minutes): No log reduction
log reduction against E. coli O157:H7 (pH 6.5, study #1 dirty water, 90 seconds & 5 minutes): 2.5 log
log reduction against E. coli O157:H7 (pH 6.5, study #1 dirty water, <30 seconds): No log reduction
log reduction against E. coli O157:H7 (pH 6.5, study #2 washed spinach, 5 minutes): 1 log
log reduction against E. coli O157:H7 (pH 6.5, study #2 washed spinach, <30 seconds & 90 seconds): No log reduction
log reduction against E. coli O157:H7 (pH 6.5, study #3 unwashed spinach, <30 seconds, 90 seconds & 5 minutes): No log reduction
